Reference: paper PMC12820563, “FoxP3 forms a head-to-head dimer in vivo and stabilizes its multimerization on adjacent microsatellites”
This is one part of the list.

Biological target: T1, MBP-FoxP1dN (Mus musculus, UniProt P58462 326-579)
T1 sequence: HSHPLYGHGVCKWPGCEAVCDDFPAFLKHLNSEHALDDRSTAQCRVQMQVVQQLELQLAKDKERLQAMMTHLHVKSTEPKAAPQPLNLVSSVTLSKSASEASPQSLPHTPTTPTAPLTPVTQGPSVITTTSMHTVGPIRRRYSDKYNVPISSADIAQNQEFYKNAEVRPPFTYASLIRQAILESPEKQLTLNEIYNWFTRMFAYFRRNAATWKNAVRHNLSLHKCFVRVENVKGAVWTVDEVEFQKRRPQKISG
Test: PD-seq (MBP pull-down with sequencing); 20 mM Tris-HCl pH 7.5, 100 mM NaCl, 1.5 mM MgCl2, 0.4 uM protein, 0.1 uM dsDNA library, 30 min, room temperature, amylose pull-down; high values mean tight binding
Conditions: protein: recombinant; tags: His6-MBP; chain copies: 2; dsDNA, one strand shown
How it was run: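 Mouse FoxP3 or FoxP1 fragment lacking the N-terminus, His6-MBP-tagged and expressed in E. coli, was incubated at 0.4 µM with 0.1 µM Klenow-filled degenerate double-stranded DNA library for 30 min at room temperature in Tris pH 7.5 buffer with NaCl and MgCl2. Complexes captured on amylose resin were washed three times and their DNA sequenced on Illumina. Binding is reads-per-million enrichment of pull-down over input, replicates pooled.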

Sequence | binding signal
GATGATTGTTCTCCCAGCTGATGAATTACGGAAGTCGAGTAAACAAATTTTCCTAATCTTTCTGTTCAAGCGCCATCTAC | 1.05 RPM ratio (pull-down/input)
GATGATTGTTCTCCCAGCTGATGAATTGATGAGCTCGAGTAAACAAATTTTCCTAATCTTTCTGTTCAAGCGCCATCTAC | 0.908 RPM ratio (pull-down/input)
GATGATTGTTCTCCCAGCTGATGAATTGGCGACGTCGAGTAAACAAATTTTCCTAATCTTTCTGTTCAAGCGCCATCTAC | 0.882 RPM ratio (pull-down/input)
GATGATTGTTCTCCCAGCTGATGAATTAATCCGATCGAGTAAACAAATTTTCCTAATCTTTCTGTTCAAGCGCCATCTAC | 0.828 RPM ratio (pull-down/input)
GATGATTGTTCTCCCAGCTGATGAATTAAGGCGCTCGAGTAAACAAATTTTCCTAATCTTTCTGTTCAAGCGCCATCTAC | 0.87 RPM ratio (pull-down/input)
GATGATTGTTCTCCCAGCTGATGAATTATGGTTGTCGAGTAAACAAATTTTCCTAATCTTTCTGTTCAAGCGCCATCTAC | 1.26 RPM ratio (pull-down/input)
GATGATTGTTCTCCCAGCTGATGAATTGCATCGTTCGAGTAAACAAATTTTCCTAATCTTTCTGTTCAAGCGCCATCTAC | 1.42 RPM ratio (pull-down/input)
GATGATTGTTCTCCCAGCTGATGAATTGAACAAGTCGAGTAAACAAATTTTCCTAATCTTTCTGTTCAAGCGCCATCTAC | 0.814 RPM ratio (pull-down/input)
GATGATTGTTCTCCCAGCTGATGAATTCTTCCTTTCGAGTAAACAAATTTTCCTAATCTTTCTGTTCAAGCGCCATCTAC | 0.829 RPM ratio (pull-down/input)
GATGATTGTTCTCCCAGCTGATGAATTAGGATTATCGAGTAAACAAATTTTCCTAATCTTTCTGTTCAAGCGCCATCTAC | 1.02 RPM ratio (pull-down/input)
GATGATTGTTCTCCCAGCTGATGAATTATTTTTTTCGAGTAAACAAATTTTCCTAATCTTTCTGTTCAAGCGCCATCTAC | 1.5 RPM ratio (pull-down/input)
GATGATTGTTCTCCCAGCTGATGAATTGGAAAACTCGAGTAAACAAATTTTCCTAATCTTTCTGTTCAAGCGCCATCTAC | 0.867 RPM ratio (pull-down/input)
GATGATTGTTCTCCCAGCTGATGAATTAGTGTATTCGAGTAAACAAATTTTCCTAATCTTTCTGTTCAAGCGCCATCTAC | 1.47 RPM ratio (pull-down/input)
GATGATTGTTCTCCCAGCTGATGAATTGGACGTGTCGAGTAAACAAATTTTCCTAATCTTTCTGTTCAAGCGCCATCTAC | 0.855 RPM ratio (pull-down/input)
GATGATTGTTCTCCCAGCTGATGAATTATCGACATCGAGTAAACAAATTTTCCTAATCTTTCTGTTCAAGCGCCATCTAC | 1.03 RPM ratio (pull-down/input)
GATGATTGTTCTCCCAGCTGATGAATTGATGATGTCGAGTAAACAAATTTTCCTAATCTTTCTGTTCAAGCGCCATCTAC | 1.39 RPM ratio (pull-down/input)

Sequence | binding signal
GATGATTGTTCTCCCAGCTGATGAATTACCGGTGTCGAGTAAACAAATTTTCCTAATCTTTCTGTTCAAGCGCCATCTAC | 0.975 RPM ratio (pull-down/input)
GATGATTGTTCTCCCAGCTGATGAATTACTAAAATCGAGTAAACAAATTTTCCTAATCTTTCTGTTCAAGCGCCATCTAC | 1.34 RPM ratio (pull-down/input)
GATGATTGTTCTCCCAGCTGATGAATTTTCCAGGTCGAGTAAACAAATTTTCCTAATCTTTCTGTTCAAGCGCCATCTAC | 0.807 RPM ratio (pull-down/input)
GATGATTGTTCTCCCAGCTGATGAATTTAGCTTCTCGAGTAAACAAATTTTCCTAATCTTTCTGTTCAAGCGCCATCTAC | 0.934 RPM ratio (pull-down/input)
GATGATTGTTCTCCCAGCTGATGAATTTTAGCGTTCGAGTAAACAAATTTTCCTAATCTTTCTGTTCAAGCGCCATCTAC | 0.953 RPM ratio (pull-down/input)
GATGATTGTTCTCCCAGCTGATGAATTCTATCCTTCGAGTAAACAAATTTTCCTAATCTTTCTGTTCAAGCGCCATCTAC | 0.86 RPM ratio (pull-down/input)
GATGATTGTTCTCCCAGCTGATGAATTTATTCCTTCGAGTAAACAAATTTTCCTAATCTTTCTGTTCAAGCGCCATCTAC | 1.08 RPM ratio (pull-down/input)
GATGATTGTTCTCCCAGCTGATGAATTGCCGATCTCGAGTAAACAAATTTTCCTAATCTTTCTGTTCAAGCGCCATCTAC | 0.861 RPM ratio (pull-down/input)
GATGATTGTTCTCCCAGCTGATGAATTGGTATTATCGAGTAAACAAATTTTCCTAATCTTTCTGTTCAAGCGCCATCTAC | 1.9 RPM ratio (pull-down/input)
GATGATTGTTCTCCCAGCTGATGAATTCACAAGGTCGAGTAAACAAATTTTCCTAATCTTTCTGTTCAAGCGCCATCTAC | 0.82 RPM ratio (pull-down/input)
GATGATTGTTCTCCCAGCTGATGAATTTACCATTTCGAGTAAACAAATTTTCCTAATCTTTCTGTTCAAGCGCCATCTAC | 1.21 RPM ratio (pull-down/input)
GATGATTGTTCTCCCAGCTGATGAATTTGATAGGTCGAGTAAACAAATTTTCCTAATCTTTCTGTTCAAGCGCCATCTAC | 0.81 RPM ratio (pull-down/input)
GATGATTGTTCTCCCAGCTGATGAATTACGCTGTTCGAGTAAACAAATTTTCCTAATCTTTCTGTTCAAGCGCCATCTAC | 1.03 RPM ratio (pull-down/input)
GATGATTGTTCTCCCAGCTGATGAATTACCCAATTCGAGTAAACAAATTTTCCTAATCTTTCTGTTCAAGCGCCATCTAC | 1.04 RPM ratio (pull-down/input)
GATGATTGTTCTCCCAGCTGATGAATTTACGATTTCGAGTAAACAAATTTTCCTAATCTTTCTGTTCAAGCGCCATCTAC | 1.37 RPM ratio (pull-down/input)
